Test results: PMC12136788
The other results are listed elsewhere or left out.

T1: UNK ZnF1-3 (human, UniProt Q9C0B0 31-174)
T1 sequence: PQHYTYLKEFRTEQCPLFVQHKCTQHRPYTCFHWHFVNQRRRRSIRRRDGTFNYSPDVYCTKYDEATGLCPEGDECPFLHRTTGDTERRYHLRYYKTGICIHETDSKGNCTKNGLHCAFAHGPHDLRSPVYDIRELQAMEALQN

B1: chr2:217001844:217001845:+_ENSG00000079246_ENST00000392132|hu_hu|hu_hu_hu_mus_False|38_68 (ssRNA)
RNA: GGGAGUUCUACAGUCCGACGAUCACCAACUUGAGGAUUAGAUCUUUUGUCAUAAGCAUAUCGGACGAUGGCCACCAUGUUUAACUCAUCCAAAGCAUGAAUCAGGGAGGAAAGGGCAACAGCUGCCGCCUCAUCAUCCUUUGCCAACAGAGGAUUGAGCAUCA
B2: chr2:125499325:125499326:+_ENSMUSG00000091337_ENSMUST00000164756|mus_mus|motif|central (ssRNA)
RNA: GGGAGUUCUACAGUCCGACGAUCGAGCUCUUCGGUCAGUCGAUUGACAACCAUCAGCGAAAACAGCUCUUCGAUAAAAGCGGGCUGGUCGAAAGGGCUCUUCUCACACCGCGCCUGAAAGCCGCCAUCCAGGGCAUCUCCGGCCAACAGAGGAUUGAGCAUCA
B3: 41411286_41411406_1835_CDS_ENSMUSG00000021365_ENSMUST00000163623|mouse|control|control (ssRNA)
RNA: GGGAGUUCUACAGUCCGACGAUCCUGCAUCUGGGAGCCCGGAUGUGUGUACUCGCUUGAGUUCAUGAUGCUGUUGGGCCCAUUCUUCAGAUGGGAAUUGGCAGGAUCUGCUCUAAAGAGGGUCUCCGCGUAGGUGCUGAUGGUCAACAGAGGAUUGAGCAUCA
B4: chr11:19991362:19991363:-_ENSMUSG00000020152_ENSMUST00000000137|mus_mus|FALSE|FALSE (ssRNA)
RNA: GGGAGUUCUACAGUCCGACGAUCCAAAGUCAGAACUGCCUGGAUGGCUACAUACACACCAGAAAACUGGUAAGUUUCAAACAUUACCUCUACAAUCUUCUCUCUGUUUUUGGUUGGAUUCAUGGGAGGUUCUGUAAGUAAAAUCAACAGAGGAUUGAGCAUCA
B5: 34055096_34055216_1498_CDS_ENSMUSG00000051390_ENSMUST00000053429|mouse|control|control (ssRNA)
RNA: GGGAGUUCUACAGUCCGACGAUCUAUGCCCAGCCCCACCGCAGAGGUGCCCCCGAGGGUCACUGCCCCGUGCUCAGCUGUGUUCCCUGGUGGCUGGCCUGGAGCCUGUGAAGAGGAGGAUGGGAAAACCAAGAUCUGGUUGCCCAACAGAGGAUUGAGCAUCA
B6: chr5:71490253:71490254:+_ENSG00000131711_ENST00000296755|hu_mus|FALSE|FALSE (ssRNA)
RNA: GGGAGUUCUACAGUCCGACGAUCCUUGAUGUUGGGUUCUGGGUCUUUCAGGUUUUCAGGUACGUUGAGAAACACAACCCCCAGGUCAGGGGAGAUGAGGUUUUUCAUCCAGUCACUGUUGCUGGUGGACCCCUGGGACCGCUCCAACAGAGGAUUGAGCAUCA
B7: chr2:5814250:5814251:-_ENSMUSG00000025816_ENSMUST00000102981|mus_hu|mus_mus_mus_hu_True|38_68 (ssRNA)
RNA: GGGAGUUCUACAGUCCGACGAUCUUCCUUUCCGGUUUCUGAAUUUCUGGUAGAACUGCACAGAAUGGUUUAAUAACUUCUAAAAAUUUGAUGCCCAUGGCGGCGGCUGGGGAGGCCCAGGGGGAAACCGCGGCCUCGGCGCUGCAACAGAGGAUUGAGCAUCA
B8: chr10:92717539:92717540:-_ENSMUSG00000008398_ENSMUST00000008542|mus_mus|FALSE|FALSE (ssRNA)
RNA: GGGAGUUCUACAGUCCGACGAUCCUGGAAAAGUGUGUUCGGCCCUUGCAGCCUGGCAGGACUCAGUGGGGCGACAGGACUAAGGCUGCUCCAGAAGUGUAUGCUGGGCAGCAGCGGACUCGAGGCCAGAAACAGUCCACUUGGCAACAGAGGAUUGAGCAUCA
B9: chr7:97110809:97110810:-_ENSMUSG00000030619_ENSMUST00000107234|mus_hu|FALSE|FALSE (ssRNA)
RNA: GGGAGUUCUACAGUCCGACGAUCGCCACUCUUAGAAAGUAUCAAAUCGCCUAACCAUCGCACACAAUCAACAUAAUUCCUAUGUAUGUCUCUGGUAGAAAAAUCAGGAAAAUGGAUUUUCUGAGAAAUAAAUGGCCUGUUAGUCAACAGAGGAUUGAGCAUCA
B10: chr6:42301883:42301884:+_ENSMUSG00000029860_ENSMUST00000070635|mus_mus|FALSE|FALSE (ssRNA)
RNA: GGGAGUUCUACAGUCCGACGAUCCUGUGGGUGCUGCUUCUCUUGAACUAGGGGCUUCUCCUUCUGCUGAGCAUAGGUGAAGCUAGGGGGCUGAGGGGAGCCUGUGCUCACAGAAGAAGGAGCAUCCGGAGGCACCAUUUUUUGCAACAGAGGAUUGAGCAUCA
B11: 75715086_75722569_389_CDS_ENSG00000169375_ENST00000360439|human|control|control (ssRNA)
RNA: GGGAGUUCUACAGUCCGACGAUCUGUUGGGUGAUGAUGGCUGCUAUGAACUGCUGCUAUAGCGGGCCCAUGACUGCCGGAGCUCUGUGGCAUGGCUGAAACCUGGUAGCUGGGUGUUACAGAGUACUGAAUUCCCGUAGCUGACAACAGAGGAUUGAGCAUCA
B12: chr2:29004620:29004621:+_ENSG00000213639_ENST00000296122|hu_hu|FALSE|FALSE (ssRNA)
RNA: GGGAGUUCUACAGUCCGACGAUCCAAUUUAAUAUUAAAUCUUCGUUUGCAUUCAUCAUAGAAUCCAUAAAUGCGAUUGAUGCUAGCACACUCAUGGUUUCCUCUUAAGAGAAAGAAGUUCUCUGGAUAUUUGAUUUUAUAAGCCAACAGAGGAUUGAGCAUCA
B13: chr14:92597410:92597411:+_ENSG00000165934_ENST00000298875|hu_hu|FALSE|FALSE (ssRNA)
RNA: GGGAGUUCUACAGUCCGACGAUCGGAAUCAAUAAUAUCCAUAGAAAAGUGCUCAUCCCAGCCACAGUCCAAUAAAAAUCUAAACUCAUCAACUUGGAGAAGAUAGCAAAGGGCAGAUUCUUCUUGGACCCCAGAAAGGGUAGUCAACAGAGGAUUGAGCAUCA
B14: chrX:101156880:101156881:-_ENSMUSG00000056537_ENSMUST00000070705|mus_mus|FALSE|FALSE (ssRNA)
RNA: GGGAGUUCUACAGUCCGACGAUCGAAUAUGGUCCAUUCUUCAGGGCCGUUUUCUUCACCAUCAUGUAUCACUUCCUGCCUAAAUCCAAGUUAAAAUACAUGCUCUCCAUUGGUCUUCAAUGCAGCUGGGUUCUGCACGGUCCUCAACAGAGGAUUGAGCAUCA
B15: chr2:114393739:114393740:-_ENSMUSG00000057147_ENSMUST00000102542|mus_hu|FALSE|FALSE (ssRNA)
RNA: GGGAGUUCUACAGUCCGACGAUCGUUAGAUGAUAUCAUCUCUCUGAGCAAAUCUUCCUGGUUUCUCUGCCAAAGAUAAGCUAAAGGCUGGAGAUUAAGCCUUUUACACACAUUUUCCACUCGAAUACGCUGAUAGUCAGAAAGCAACAGAGGAUUGAGCAUCA
B16: chr1:60041781:60041782:+_ENSMUSG00000041040_ENSMUST00000036540|mus_hu|mus_mus_mus_hu_False|28_38 (ssRNA)
RNA: GGGAGUUCUACAGUCCGACGAUCAAGUUUACAAUAGUAAAGUAAAUGCAGUAGUGGCAAAUUUUCUUUUAUUUUCCUUCACAAAAGAAAAUCUUUAGAUCUCAGUUCAAUCCCAGAACAUAGUGAAAGCUAUAAAUUCUGACUCAACAGAGGAUUGAGCAUCA
B17: chr1:163112212:163112213:-_ENSG00000143248_ENST00000313961|hu_hu|hu_hu_hu_mus_False|58_88 (ssRNA)
RNA: GGGAGUUCUACAGUCCGACGAUCUUUUAUUAUCAGUAAGAGUGAGUCACAUAGUACGCAAAGUAUUGGAUACAAUAUUCUAAAGAUAAACACUAUUGGUCCAGAAUUUAAAACUUUAUGAGCGAAGUGCUGGCACAGGACUUACAACAGAGGAUUGAGCAUCA
B18: chr18:31598358:31598359:-_ENSMUSG00000024261_ENSMUST00000025110|mus_mus|FALSE|FALSE (ssRNA)
RNA: GGGAGUUCUACAGUCCGACGAUCAAAUACAUUUUCAUCGAAUUUACAAACACUGUGAUAUCAAACACAUUCUCAAAAAUGCUAAAGCACUGACACAAAACUUGACUCAAAGGUAAAAUUUCCAGUAGACAUUAUCUCUAACUUCAACAGAGGAUUGAGCAUCA
B19: chr11:70698419:70698420:+_ENSMUSG00000020817_ENSMUST00000076270|mus_hu|motif|central (ssRNA)
RNA: GGGAGUUCUACAGUCCGACGAUCUUUCAUAACAGCCUGAAGUGAAGCAACUUCUUCUCUCCACUGUCUUUUCACUUCAUCGGUAGCUUCUUGCUUGGUGUUCUCAGAGACUGUGGCAAUCGCCUUAAUAUUCUCCAUCUCUGCCAACAGAGGAUUGAGCAUCA
B20: chr1:225611761:225611762:-_ENSG00000143815_ENST00000272163|hu_mus|hu_hu_hu_mus_True|18_18 (ssRNA)
RNA: GGGAGUUCUACAGUCCGACGAUCCCAGGCCAUCGGCCUCUGACCACUUCACCCUCAACAAACUUCCUACUUGGCAUUUUCUAAAAUUAGUCUGGCCGCGCUCCGGCGGGAACUCCAGACGGCUCCCGACAGUCACCAGCAGCCCAACAGAGGAUUGAGCAUCA
B21: chr10:33218917:33218918:-_ENSG00000150093_ENST00000302278|perfect_dup|motif|central (ssRNA)
RNA: GGGAGUUCUACAGUCCGACGAUCAGAGCCUCUGGGAUUCUCUAUGUCACUUGGCUGGCAACCCUUCUUUUUCAAAGCUUCGGAAUCAUCACAUCGUGCAGAAGUAGGCAUUCCUUCUUGCAAAAAUGUCGUAUUUGUACACCACAACAGAGGAUUGAGCAUCA
B22: chr12:109547708:109547709:+_ENSG00000076248_ENST00000242576|hu_hu|motif|central (ssRNA)
RNA: GGGAGUUCUACAGUCCGACGAUCAGACUUCUGCAGCAGCUCAUUGGUCUUUGAAAAGUGUCUACAUCCAAAGAACCCUCGGUACACUGACAAAGGGGAGGGAUGAGCCGUCUGUAGUACAUGGUGCCGCUUCCUAUCAAUGGCCAACAGAGGAUUGAGCAUCA

target: T1, UNK ZnF1-3; experiment: nsRBNS (natural sequence RNA bind-n-seq); RBNS binding buffer (assumed for nsRBNS): 25 mM Tris pH 7.5, 150 mM KCl, 3 mM MgCl2, 0.01% Triton X-100, 500 ug/ml BSA, 20 U/ml SUPERase-In, 4 C; UNK is unkempt and MSI1 is Musashi-1; names of the RNAs are library labels; protein concentration not given here; high values mean tight binding

Binder | binding signal [enrichment R]
B1 | 1.61
B2 | 1.04
B3 | 0.866
B4 | 1.42
B5 | 1.31
B6 | 0.841
B7 | 1.8
B8 | 1.15
B9 | 1.2
B10 | 1.27
B11 | 1.03
B12 | 1.03
B13 | 1.99
B14 | 0.623
B15 | 1.12
B16 | 0.457
B17 | 1.39
B18 | 0.673
B19 | 0.293
B20 | 1.27
B21 | 0.855
B22 | 1.62
